Assay results: the supplement of paper PMC9046079
Counter-ions that a name gives are not always drawn. ± gives the standard deviation of the averaged measurements. The list shows a part of the results.

Experiments:
[1] = test system: murine small intestinal organoids (ENR+CD Paneth differentiation); assay: cellular ATP (CellTiter-Glo 3D) relative to plate median (log10 fold change); higher = more viable cells; settings: 6 d
[2] = test system: murine small intestinal organoids (ENR+CD Paneth differentiation); assay: carbachol-stimulated secreted lysozyme activity relative to plate median (log10 fold change); higher = more Paneth cell lysozyme secretion; settings: 6 d, carbachol 10 µM
[3] = test system: murine small intestinal organoids (ENR+CD Paneth differentiation); assay: basal (non-stimulated) secreted lysozyme activity relative to plate median (log10 fold change); higher = more Paneth cell lysozyme secretion; settings: 6 d
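Wherever basal (non-stimulated) secreted lysozyme activity relative to plate median is given: ISC-enriched organoid precursors grown as 2.5D pseudo-monolayer on Matrigel, compound given on day 0 and day 3, plate values LOESS-normalized before median fold change, three murine donors.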
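Wherever cellular ATP (CellTiter-Glo 3D) relative to plate median is given: 2.5D pseudo-monolayer culture of ISC-enriched organoids partly embedded atop Matrigel, compound added on day 0 and again on day 3, per-plate LOESS correction before median fold change.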

SMILES	cellular ATP (log10) ([1]; 0.08 µM)	cellular ATP (log10) ([1]; 0.4 µM)	cellular ATP (log10) ([1]; 2 µM)	cellular ATP (log10) ([1]; 10 µM)	carbachol-stimulated secreted lysozyme activity (log10) ([2]; 0.08 µM)	carbachol-stimulated secreted lysozyme activity (log10) ([2]; 0.4 µM)	carbachol-stimulated secreted lysozyme activity (log10) ([2]; 2 µM)	carbachol-stimulated secreted lysozyme activity (log10) ([2]; 10 µM)	basal (log10) ([3]; 0.08 µM)	basal (log10) ([3]; 0.4 µM)	basal (log10) ([3]; 2 µM)	basal (log10) ([3]; 10 µM)
CC1=NN(c2ccc(C(=O)O)cc2)C(=O)C1=Cc1ccc(-c2cc(C)c(C)cc2[N+](=O)[O-])o1	0.346 ± 0.087	0.119 ± 0.31	0.00959 ± 0.33	0.0466 ± 0.28	0.0689 ± 0.0082	0.0648 ± 0.056	0.115 ± 0.086	0.122 ± 0.049	0.0565 ± 0.026	0.089 ± 0.13	0.16 ± 0.095	0.0536 ± 0.043
CCn1c(-c2nonc2N)nc2c(C#CC(C)(C)O)ncc(OC[C@H]3CCCNC3)c21	0.129 ± 0.22	0.197 ± 0.23	-0.0268 ± 0.096	-0.182 ± 0.69	-0.0224 ± 0.053	0.126 ± 0.14	0.0823 ± 0.051	-0.266 ± 0.03	0.0445 ± 0.024	0.047 ± 0.071	0.122 ± 0.062	-0.0802 ± 0.087
CCOC(=O)c1ccc(NC2CCCCC2)c(N)c1 [Ferrostatin-1 (Fer-1)]	0.312 ± 0.24	0.453 ± 0.2	0.215 ± 0.2	-0.0457 ± 0.18	0.092 ± 0.049	0.191 ± 0.095	0.0779 ± 0.1	-0.0324 ± 0.15	0.108 ± 0.072	0.116 ± 0.063	0.07 ± 0.079	0.0133 ± 0.093
COc1cccc2c1C(=O)c1c(O)c3c(c(O)c1C2=O)C[C@@](O)(C(C)=O)C[C@@H]3O[C@H]1C[C@H](N)[C@H](O)[C@H](C)O1 [Daunorubicin HCl]	-0.467 ± 0.53	-0.601 ± 0.024	-0.817 ± 0.6	-1.1 ± 0.94	-0.0974 ± 0.51	-0.474 ± 0.13	-0.475 ± 0.12	-0.49 ± 0.095	-0.136 ± 0.2	-0.241 ± 0.16	-0.262 ± 0.18	-0.26 ± 0.19
CCOc1ccccc1N=Nc1c(C)[nH]n(-c2nc(-c3ccccc3)cs2)c1=O	0.209 ± 0.089	-0.0102 ± 0.21	-0.156 ± 0.72	-0.114 ± 0.47	0.117 ± 0.2	0.0653 ± 0.086	0.0768 ± 0.056	0.00889 ± 0.079	0.0449 ± 0.14	-0.00937 ± 0.078	0.0572 ± 0.13	-0.00728 ± 0.1
CC(C)Oc1ccc(-c2cnc3c(-c4ccnc5ccccc45)cnn3c2)cc1	-0.0313 ± 0.046	-0.0786 ± 0.17	-0.00164 ± 0.23	-0.00118 ± 0.1	0.127 ± 0.046	0.153 ± 0.05	0.11 ± 0.076	-0.106 ± 0.08	0.0178 ± 0.04	0.0265 ± 0.15	0.0143 ± 0.11	-0.0754 ± 0.044
C=CC(=O)Nc1cccc(Nc2nc(Nc3ccc(OCCOC)cc3)ncc2F)c1	0.217 ± 0.23	0.0567 ± 0.091	-0.0576 ± 0.21	-0.778 ± 0.26	0.259 ± 0.069	0.0465 ± 0.07	-0.266 ± 0.17	-0.458 ± 0.028	0.0954 ± 0.13	0.0518 ± 0.16	-0.112 ± 0.064	-0.213 ± 0.08
COc1ccc2cc([C@H](C)C(=O)O)ccc2c1 [Naproxen]	-0.0977 ± 0.2	-0.0678 ± 0.13	-0.588 ± 0.42	-1.28 ± 0.63	0.118 ± 0.16	0.103 ± 0.12	-0.263 ± 0.067	-0.306 ± 0.19	0.141 ± 0.13	0.107 ± 0.2	-0.0801 ± 0.081	-0.122 ± 0.14
CC1=C(C(=O)Nc2cc3cn[nH]c3cc2F)C(c2ccc(C(F)(F)F)cc2)CC(=O)N1 (stereo unspecified)	0.527 ± 0.2	0.545 ± 0.19	0.488 ± 0.29	0.37 ± 0.2	0.246 ± 0.054	0.271 ± 0.16	0.247 ± 0.12	0.155 ± 0.13	0.137 ± 0.11	0.128 ± 0.06	0.14 ± 0.09	0.0594 ± 0.1
O=C(Nc1cc(C(F)(F)F)cc(C(F)(F)F)c1)c1cc(Cl)ccc1O	-0.00695 ± 0.19	0.117 ± 0.29	0.0758 ± 0.062	-0.48 ± 0.47	-0.0221 ± 0.00055	0.0912 ± 0.15	0.116 ± 0.047	-0.0761 ± 0.034	0.00404 ± 0.14	0.101 ± 0.17	0.0973 ± 0.1	-0.0892 ± 0.061
CCOC(=O)[C@H](CCc1ccccc1)N[C@@H](C)C(=O)N1C(=O)N(C)C[C@H]1C(=O)O [Imidapril HCl]	-0.333 ± 0.14	-0.148 ± 0.077	-0.236 ± 0.27	-0.227 ± 0.15	-0.0566 ± 0.096	0.18 ± 0.32	-0.0367 ± 0.039	-0.126 ± 0.086	-0.00562 ± 0.056	0.000457 ± 0.062	0.0139 ± 0.079	-0.0811 ± 0.092
CC(C)(C)c1cc(C(C)(C)C)c(NC(=O)c2c[nH]c3ccccc3c2=O)cc1O [Ivacaftor (VX-770)]	0.234 ± 0.38	0.145 ± 0.36	-0.148 ± 0.29	-0.47 ± 0.19	0.0733 ± 0.052	0.17 ± 0.087	0.0173 ± 0.015	-0.314 ± 0.033	0.0992 ± 0.047	0.127 ± 0.097	0.0823 ± 0.083	-0.142 ± 0.061
NC(=O)N1c2ccccc2CC(=O)c2ccccc21 [Oxcarbazepine]	-0.0213 ± 0.088	-0.103 ± 0.071	-0.0824 ± 0.092	-0.15 ± 0.13	0.0402 ± 0.049	0.226 ± 0.33	0.0423 ± 0.03	-0.0794 ± 0.14	0.00401 ± 0.0065	-7.48e-05 ± 0.0059	0.0401 ± 0.066	-0.0606 ± 0.094
NS(=O)(=O)c1ccc(NC(=O)Nc2ccc(F)cc2)cc1	-0.0362 ± 0.039	0.227 ± 0.076	-0.137 ± 0.18	0.0278 ± 0.41	0.0595 ± 0.076	0.127 ± 0.047	0.162 ± 0.38	0.0216 ± 0.019	0.0941 ± 0.12	0.0658 ± 0.059	0.071 ± 0.11	0.0117 ± 0.047
C[C@@H](NCCCc1cccc(C(F)(F)F)c1)c1cccc2ccccc12 [Cinacalcet HCl]	-0.444 ± 0.38	-0.298 ± 0.099	-0.0116 ± 0.1	-0.451 ± 0.35	-0.0898 ± 0.24	0.0129 ± 0.13	-0.0296 ± 0.042	-0.174 ± 0.026	-0.0616 ± 0.12	-0.0232 ± 0.14	-0.0217 ± 0.044	-0.0907 ± 0.044
CNC(=O)[C@H](Cc1ccccc1)NC(=O)[C@H](CC(C)C)[C@H](CSc1cccs1)C(=O)NO [Batimastat (BB-94)]	0.0352 ± 0.045	-0.0946 ± 0.17	-0.049 ± 0.14	-0.283 ± 0.21	-0.0112 ± 0.089	0.00423 ± 0.037	0.0608 ± 0.0089	-0.162 ± 0.054	-0.00283 ± 0.05	0.00477 ± 0.09	0.0813 ± 0.078	-0.0746 ± 0.11
OC(CNCC(O)C1CCc2cc(F)ccc2O1)C1CCc2cc(F)ccc2O1 (stereo unspecified) [Nebivolol]	0.388 ± 0.2	0.22 ± 0.15	0.312 ± 0.035	0.209 ± 0.14	0.181 ± 0.25	0.323 ± 0.082	0.0593 ± 0.1	0.123 ± 0.13	0.175 ± 0.086	0.319 ± 0.28	0.11 ± 0.1	0.096 ± 0.047
COc1ccc(CNCc2cccc3ccccc23)cc1	-0.0095 ± 0.19	-0.151 ± 0.18	-0.247 ± 0.28	-0.0402 ± 0.12	0.114 ± 0.1	-0.0361 ± 0.045	0.116 ± 0.21	0.0256 ± 0.019	0.03 ± 0.037	-0.0134 ± 0.029	0.0727 ± 0.018	-0.0178 ± 0.054
